Assay results taken from the RNAGym collection of RNA variant scans (doi:10.1073/pnas.2313332121).
Variants at the background level are over-represented here.

B1: TPR 5TU (parent)
chain: GGAUCUUCUCGAUCUAACAAAAAAGACAAAUCUGCCACAAAGCUUGAGAGCAUCUUCGGAUGCAGAGGCGGCAGCCUUCGGUGGCGCGAUAGCGCCAACGUUCUCAACUAUGACACGCAAAACGCGUGCUCCGUUGAAUGGAGUUUAUCAUG

Variants of: B1
Assay: polymerase ribozyme fitness, log enrichment relative to wild type (log ratio); higher = more active; in vitro selection for triplet polymerase activity
Summary of the method: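 Fitness compares each genotype's enrichment to that of the wild type on a logarithmic scale, averaging replicates with inverse-variance weights. The logarithm is base 2. Enrichment came from Illumina sequencing of input and output libraries after one triplicate round of in vitro selection, which included frozen incubation at −7 °C, of PCR-built, transcribed mutant libraries of each subunit of a heterodimeric triplet polymerase ribozyme. Only genotypes with ≥10 input reads and ≥1 read per output were kept.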

Variant	polymerase ribozyme fitness (log ratio)
C14G A16U A20U A24U A30U	≤ -4.2
C14A C35A A49C G70C A97G A98C G117U A138G	≤ -4.2
U15G A39U C72U A91U A147U A150C	≤ -4.2
C14U C96A	-1.59
C14G U55A U61C G94U	≤ -4.2
C14G U61C G74U A91C C95U C118U G140A A142G	≤ -4.2
C14G A49G C54A G88A	≤ -4.2
C14G A40C G80C C96U	≤ -4.2
C14A A49G G92C A107G G136U A142U	≤ -4.2
C14A A20C C27A G58U A89G C93U	≤ -4.2
U15G A16U U53A G59C A60G C87G C95A C96U	≤ -4.2
C14A A20U C51U G86A U90G A98G A121G U127G	≤ -4.2
U15G A21U U90G A122U C125A A137U	≤ -4.2
C14G C93G	≤ -4.2
C14G C93A	-3.68
U15G A39C A49C G84U C108U U130G	≤ -4.2
C14G A52C U55A C131G	≤ -4.2
C14G C85G C131A	≤ -4.2
C14G U44A A60G G74U G84A A97U C132A	≤ -4.2
C14G C35G G83C G128C G133A	≤ -4.2
C14G A29U A60G A64G C85U U145G	≤ -4.2
C14A A37U C75G G94A A113G C114G C149A	≤ -4.2
C14A A19C C27U C51G C93A U134A U146G	≤ -4.2
U15C A28C C85G A120G A137G G143C U146G	≤ -4.2

Variant	polymerase ribozyme fitness (log ratio)
C14U A115G	-2.56
C14A C85U C96G U146G A150G	≤ -4.2
U15G A37G A60U A66C G86A C95A G126A	≤ -4.2
U13G U31A A41G C79A G83A G94U C125G	≤ -4.2
C14G A20U A40C G42C C93G	≤ -4.2
C14A C18U C27U C38G U61C G83A C96A A138G	≤ -4.2
C14G C54G U56G G83C C87G U90G U101G C118A A119U U130A	≤ -4.2
C14A A20C U33A A40C G48A G86U	≤ -4.2
C14G A41G C43U C51G U55G C85U A115U U139A U144C	≤ -4.2
U13G U15A C69A C123U G141A A150C	≤ -4.2
C14A G83A G92A U102C	≤ -4.2
U15G A37U U44A G48C A64G G92A	≤ -4.2
C14A A39C C54U U102G G143U	≤ -4.2
C14G A24U A28U C43U A73G U82C C103G G136A U146C	≤ -4.2
U15A A66G C75U G100A A106G C125G G152A	≤ -4.2
U15A G48C G83U	-2.41
C14G A21U A60U C75A U77G A89U C95A	≤ -4.2
U13G G136A U144C	-2.04
C14A U15G A16U A40C A52C G88U G92A A97G	≤ -4.2
U13G U53A A66C G83U C149A	≤ -4.2
U15A A26C G34U C105G G143C	≤ -4.2
C14G U55G G65U G84U C85U G86A A121U	≤ -4.2
C14A A20U A39C C95U C149U	≤ -4.2
C14U U15C A23C U44A C57U U135C	≤ -4.2

Variant	polymerase ribozyme fitness (log ratio)
U15G A29C G42C A91G G92A C103U A115C A137U	≤ -4.2
C14A A66U G68A C72G G92U	≤ -4.2
C14U C79A C87G C105U U148G	≤ -4.2
U15G A24U G92A A138G G141U	≤ -4.2
U15C A40U G83A C87A A142U C149U	≤ -4.2
C14U A22G C32U C54U U82G G84U C99A	≤ -4.2
C14U G46A C79G A89G C95G A97C U111A	≤ -4.2
C14U G83U G88C A147G	≤ -4.2
C14G C87A	≤ -4.2
U15G A37C A47C C95U	-1.64
C14G U55C C93G C96A U104G	≤ -4.2
C14U A19C C36U C75U U90A U134G	≤ -4.2
C14A A17G C35U A47C U61A C96U A110G	≤ -4.2
C14A C27U A52C C85U C129A	≤ -4.2
C14U A24U C35A A73G A91U A97U G136C G143A	≤ -4.2
C14U G48A A64C U90C U102G C103G A115G A122G U127A A150C	≤ -4.2
C14G A49C C51A C54U G59A G92A C95U A113U U134C A137U	≤ -4.2
C14G C93G A107C A150U	≤ -4.2
C14U A29U C54G G83U G84U C105G U151G	≤ -4.2
C14U G48C U61A U82G G92A C96G G152U	≤ -4.2
C14U A39G U55A A66C C116U U148C	≤ -4.2
C14A C125A	-1.75
C14A A47C G81C G86A C96A C149U	≤ -4.2
C14U A21C C72U C96U C105G C116U G143C	≤ -4.2

Variant	polymerase ribozyme fitness (log ratio)
U15C G88A U102G	≤ -4.2
C14G A26U A30U C75A C93U G141A U148G U151G	≤ -4.2
C14A C35A C63U U102G	≤ -4.2
C14U C63U G94C G143U	≤ -4.2
C14A A30U C93U U102A	≤ -4.2
C14U A19U C87U C99A	-3.91
U15G A37U A52C U82G C85U G86A U139A U146C	≤ -4.2
U15C C36A A60U C85G C116U	≤ -4.2
C14G A20U A29C A40G G59U C85G A122U U148A	≤ -4.2
C14G U45A G86U A89G	≤ -4.2
C14U C35A C36G C38U C87G G126C C131G	≤ -4.2
U15A C18U A19U A26G C27U A49C U144A	≤ -4.2
C14G C35U C54A G67C C95U G128A G141C	≤ -4.2
C14G C76G A89C C93G C95G U127G U151G	≤ -4.2
U15A A21G C36G A60C C96A G124A A142C	≤ -4.2
U15G A47C C57U C96A C108G	≤ -4.2
U15C A39C G67U G84U U90G A106U A107G A110U	≤ -4.2
U15A C38U G58A U61G G68A G83A C87G A106C U145C	≤ -4.2
C14G A39U	≤ -4.2
U15G C27U G83A A121C	-2.52
U15G A24C C35A A107U A147U	≤ -4.2
U15G A21U A39G A47G G83A A142G	-3.92
C14U A73G G94C U139C	≤ -4.2
U15A C38A A41C C75U U135C	-3.63

Variant	polymerase ribozyme fitness (log ratio)
C14G C18G U31G A49U U56A A91U G100A U127C C132A U144G	≤ -4.2
U13G G136A A137G C149U	-3.07
U15G A17G A41U C87U A121U U127A	≤ -4.2
U15C A20G A97G G140A	-3.64
C14G A30U C36U A39C C93A A147C	≤ -4.2
C14A A17G A39C G70A U111G	≤ -4.2
C14U A16C C85U C87G U111G	≤ -4.2
C14G G42A G81A A89C G133U	≤ -4.2
C14G A19U G34U C87G G100A A142C	≤ -4.2
U15G A28C G83U U148G	≤ -4.2
U15A A47G U56A C57U G124C C149U	-2.48
C14G A21C C43U A49C C51A A91U C93A A147C	≤ -4.2
C14U C118U	-1.65
C14G U56A G62C	≤ -4.2
C14G C69A	≤ -4.2
U15A U33A C38U U44G G84U A142G	≤ -4.2
C14U A30U A39C A52G A64G A91U G94A C99A U104A A110U	≤ -4.2
C14U C18G A40G G74A G83C	≤ -4.2
C14U C35A A73U C75G U78A A89G C93G C95A U146G	≤ -4.2
C14U A29G C38G C87A G94A A106G	≤ -4.2
U15C A22G A47C U55A G88C U139C	≤ -4.2
C14G U45A A49C C96U A150G	≤ -4.2
C14U A19U U55A	-1.9
C14G A17U A22U G65U U90A	≤ -4.2

Variant	polymerase ribozyme fitness (log ratio)
C14U A24C C38U	≤ -4.2
U15C G34C C57A G84U A98U	-2.33
C14U U61G C87U C125G	≤ -4.2
C14G A23C C32U C96U	-4.1
U15G A20U C27A A29C A40U U61A G86U C103G C132A G140A	≤ -4.2
C14G C18U	-1.18
C14U A22U A60C G81U C95G C96U G128C	≤ -4.2
C14U A21U A24U U44A C57U C93G A113C U135G G136A	≤ -4.2
C14G C38U U53A U82C C95G	≤ -4.2
U15A A39G U53A A73U C85U G124U U134C U135C	≤ -4.2
C14G C32G G141U A147C	≤ -4.2
C14G G83A U90G G92U U102G C105A C118U A120C U146G	≤ -4.2
C14G U53A C85G U90A A91U C99A C118A A120U	≤ -4.2
C14G A22C C57U A66U U90C A91U U148G	≤ -4.2
C14G A23U A28U G50C C54A A66G C76U U82C C93U	≤ -4.2
C14A G50U C69G U134A A147C	≤ -4.2
C14G A52G C75U C85U U144C	-3.71
C14U A28U C96G	≤ -4.2
U15C C36A G59A C87G A113U G143C	≤ -4.2
C14U A20U G65A G70A U145C	≤ -4.2
U15G A22U U56A A66C G117A A138G U146C	≤ -4.2
C14A C27G C54U A73U G84U C114A	≤ -4.2
C14U U53G G68C G84U	≤ -4.2
C14U A21G A49G	-2.56

Variant	polymerase ribozyme fitness (log ratio)
U15G A24G A52C G86C C105G	≤ -4.2
C14U C35U C85U A106G A115G	-3.81
C14A A22G G50C U55A C93A A107C G140C	≤ -4.2
C14G U31A G68A G86A A91G C108A C118G	≤ -4.2
C14G A16C C57U G94U A137U U144A	≤ -4.2
C14A U90G A137C	≤ -4.2
U15A C54U G92A	-3
U13G U56G G84U C85A C99U A138U	≤ -4.2
C14U U15C A23U A41U C85A	≤ -4.2
U15C A16U A24U G68C	≤ -4.2
U15G A39U A91U A120G U148G	≤ -4.2
C14A C43U A47U C76U G86C U102C U109G	≤ -4.2
C14G A41C A52G C79G A137C U144C	≤ -4.2
C14A C75A C76U C85U	≤ -4.2
C14U A17U C93G	≤ -4.2
U15A C27G U55A C57G G94U C105U G136A G143U	≤ -4.2
C14A A29U C96A U101G G133C U144C	≤ -4.2
C14U C32A A49C C85A	≤ -4.2
C14G C76U G88U C93G C96A G112A G124A G133A	≤ -4.2
C14U C32G U33G A47U U53A G74A C95G A106G U135A	≤ -4.2
U15A A52C A66C G84U	≤ -4.2
C14U A30C A40U A47C C51A G124A	≤ -4.2
C14A A28U G46C U61A C95U U139C A150C	≤ -4.2
